Reference: the supplement of paper PMC3334620
The full ranking holds about 33,000 sequences; the median of “E-score (-0.5 to 0.5)” is about -0.013, and the highest 2% start at about 0.3. The list shows a part of the results.

target: T1, Msn1 (UniProt P22148); assay: PBM E-score (8-mer binding enrichment) (E-score (-0.5 to 0.5)); higher = stronger / more preferred TF binding; most listed sequences are background and not binding sites; conditions: protein concentration: 200 nM; construct: GST-full length
T1 sequence: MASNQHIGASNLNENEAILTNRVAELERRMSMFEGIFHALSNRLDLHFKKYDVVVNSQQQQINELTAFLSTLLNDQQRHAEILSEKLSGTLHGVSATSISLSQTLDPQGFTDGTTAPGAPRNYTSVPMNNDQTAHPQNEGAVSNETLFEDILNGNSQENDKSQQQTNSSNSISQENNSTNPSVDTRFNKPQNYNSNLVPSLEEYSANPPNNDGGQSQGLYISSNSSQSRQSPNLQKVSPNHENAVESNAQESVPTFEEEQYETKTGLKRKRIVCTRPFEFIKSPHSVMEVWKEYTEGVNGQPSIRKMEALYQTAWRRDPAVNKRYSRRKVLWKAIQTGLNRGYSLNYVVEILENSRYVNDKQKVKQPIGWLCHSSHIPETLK
In short: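 Universal all-10-mer Agilent arrays, double-stranded by primer extension on fresh or once-stripped slides, were probed with about 100-200 nM GST-tagged yeast transcription factors made by PURExpress. Fluorescent anti-GST detected bound protein, and masliner normalised the scans. E-scores from the Universal PBM Analysis Suite were given to each ungapped eight-base word pooled with its reverse complement.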

| Sequence | PBM E-score |
| --- | --- |
| ACTATACG | 0.00349 |
| ATAGGCAC | -0.219 |
| ATCGTGGG | 0.0926 |
| AGCCCGAT | 0.132 |
| TGTCCCAA | 0.463 |
| ATAGTCTG | 0.157 |
| CGTATCTC | -0.159 |
| AGTGCGAG | -0.103 |
| AGAGGCCA | -0.216 |
| GACTCCTC | -0.149 |
| TCGTCTAA | -0.0666 |
| CCGGGATC | 0.0583 |
| CTAAAAAA | 0.154 |
| ATGCAAAT | 0.00702 |
| ATGAGTGC | -0.0848 |
| GATTTTAA | 0.139 |
| ACAACAGG | -0.0002 |
| AACCATCA | 0.0325 |
| ATTCATAC | 0.129 |
| AGTACTAC | 0.233 |
| GCTCTACA | -0.122 |
| GGCTGGCA | -0.274 |
| AGAGAAGC | -0.0783 |
| AAAATCAG | 0.217 |
| ATGGATTG | 0.016 |

| Sequence | PBM E-score |
| --- | --- |
| CTCTTATC | 0.229 |
| CTTATCAA | 0.129 |
| CAAGGTAA | -0.0377 |
| ATATTCAT | 0.133 |
| CATACCGG | 0.0489 |
| CCATCTCG | -0.0854 |
| CTGGTGTA | -0.193 |
| ACGATTGG | -0.00479 |
| ATGCCTTC | -0.294 |
| AGGGAGCG | -0.234 |
| AGCGGTTA | -0.0487 |
| ACACCTAC | -0.04 |
| ACCGACCA | -0.0177 |
| ATCAAGGA | -0.057 |
| AAAGATCA | 0.0609 |
| ATGTAAAA | 0.188 |
| CCTTTCCC | -0.124 |
| CCGTTGAC | -0.12 |
| ACCGTCTC | -0.061 |
| CTTTCCTA | -0.195 |
| AGGTTGGA | -0.0227 |
| ATCGTGTG | 0.139 |
| CTGTTGAA | 0.118 |
| GTACAAAA | 0.416 |
| TACCCCGA | -0.016 |

| Sequence | PBM E-score |
| --- | --- |
| ACTCAAGG | -0.202 |
| CAACGTTC | -0.0539 |
| ATTTCACC | -0.0512 |
| CAGTTGTA | 0.069 |
| CGTCAATC | 0.0734 |
| ATATCCCA | 0.115 |
| AGAAGTAG | -0.0797 |
| ATTTTGGC | 0.177 |
| ACAGGCCA | -0.0223 |
| ACTTTAAC | -0.0591 |
| ACTGGTTA | -0.0483 |
| AGTGTAAG | 0.113 |
| CCCTAAGG | -0.079 |
| ACAAGGGC | -0.077 |
| AGCGGAGA | -0.00013 |
| GATTGCGC | 0.102 |
| TCAGTCAA | -0.00996 |
| CGCGGAAC | 0.0407 |
| ACAGCCAA | -0.0759 |
| GGCGACAA | 0.069 |
| CAGGGCGC | -0.23 |
| AATCTCCT | -0.206 |
| AGGCGACG | -0.143 |
| GGGGACCC | -0.352 |
| CCCGTGAC | -0.194 |

| Sequence | PBM E-score |
| --- | --- |
| ACTATATC | 0.0372 |
| GTCGGATA | 0.0474 |
| ATGGAGAG | -0.0424 |
| CGAGGCCA | -0.166 |
| CATAGCTA | -0.193 |
| CCGGAGAC | 0.111 |
| ACAGACCA | 0.125 |
| ATAGAACC | -0.14 |
| CAGAGGAC | 0.0901 |
| ACTAGTAT | 0.0508 |
| ACGGATCT | 0.0114 |
| GTGGGCGA | 0.0429 |
| GTATTCGA | -0.237 |
| CCATGAAA | 0.187 |
| CTAGCCAC | -0.227 |
| GCGTTGTA | 0.0495 |
| ATCACCAG | 0.0155 |
| GGTAGTCA | -0.119 |
| ACTGAAAA | 0.0891 |
| CGCGGATA | 0.0372 |
| CTTAGCTA | -0.284 |
| ACGCCTCG | -0.0821 |
| CTTCTCTC | -0.0293 |
| TAAAGAAA | 0.159 |
| AGCTACGC | -0.186 |

| Sequence | PBM E-score |
| --- | --- |
| ACGAACGC | -0.00437 |
| ACGTTAGG | -0.23 |
| GGAACTCA | -0.0378 |
| AGTAGCAC | -0.212 |
| TCATGGAA | -0.00281 |
| ACATGGGT | 0.192 |
| TCATAGGA | 0.124 |
| AAGGATAG | -0.00248 |
| CTGACCGC | -0.0999 |
| ACAAGGGT | 0.123 |
| GCAATCGA | 0.00159 |
| ACGTCATG | 0.0841 |
| ATTACGCG | -0.059 |
| ACCAGCGA | -0.107 |
| CGGGTAAC | 0.0115 |
| ATCCTCAA | -0.125 |
| CAGCCGCA | -0.258 |
| ACCTTTGA | -0.12 |
| AAATTAGA | 0.248 |
| TCCAATCA | 0.0389 |
| CTCGTTGA | -0.0736 |
| CACCGGAA | 0.0679 |
| CCATGTGA | -0.239 |
| ATTGACAG | -0.0324 |
| GAAAGTCC | 0.283 |

| Sequence | PBM E-score |
| --- | --- |
| GAATTCAC | 0.0269 |
| GTATCCAA | -0.0751 |
| TATTGGGA | 0.06 |
| GGAGGACC | -0.25 |
| AGATTTTA | -0.099 |
| AGACTCAG | -0.146 |
| AGGACTGC | -0.198 |
| CACCGATG | 0.0734 |
| CCCGATTA | 0.254 |
| CTTCGGGC | -0.0967 |
| GGTACTAC | -0.00851 |
| GCGAAGCA | -0.0391 |
| CGCAGTTC | 0.0141 |
| AGTAGCCC | -0.101 |
| AGTGGCAT | 0.0641 |
| CCACTAAG | 0.112 |
| CGGACTAA | 0.248 |
| AGTTTTGC | 0.0902 |
| TAGCTAAA | -0.0924 |
| GGGAAGAC | -0.0284 |
| AGGGATGG | -0.288 |
| CACACCAG | -0.0684 |
| ACGACGCA | -0.00086 |
| AATCCCCA | -0.0837 |
| CTGCACAG | -0.107 |

| Sequence | PBM E-score |
| --- | --- |
| ATTATATA | 0.262 |
| AGGCCGCA | -0.207 |
| CCGACACA | -0.0231 |
| CGATATCA | -0.0294 |
| GCCGGTGA | -0.18 |
| AATCGCCG | -0.00799 |
| CACCGTCC | 0.00606 |
| ACTGTTCA | -0.151 |
| AGGTCCAT | 0.122 |
| CACTCACA | -0.175 |
| TCGCTAAA | 0.0756 |
| AACGCAGC | -0.021 |
| AAGGTAGT | -0.151 |
| CGCTTGAG | -0.0838 |
| AAGCGACA | 0.222 |
| GACACATA | 0.361 |
| AGGAACTC | -0.173 |
| AGTAACGA | 0.028 |
| AATTTCGT | 0.188 |
| AGATAAAA | 0.183 |
| TAGATCAA | 0.0543 |
| CACATTAA | -0.0475 |
